Results reported in PubChem BioAssay AID485294 (National Center for Advancing Translational Sciences (NCATS), 2010).
Hit rate of the full screen: of about 370,000 compounds, about 150 (0.041%) were called active. The inconclusive results got no clear call from the source; some entries with a clear call stand among them for comparison. The call rests on the fitted dose curve; in most records, active means well fitted inhibition curve with a large enough effect; inconclusive means small, poorly fitted or top-dose-only effect; inactive means flat fitted curve, though single readings scatter. Potencies of inconclusive entries are left out as doubtful fits.

Each compound was assayed against Beta-lactamase (Escherichia coli (strain K12)) (UniProt P00811) (assay: qHTS Inhibitors of AmpC Beta-Lactamase (assay with detergent)). Conditions: AmpC hydrolysis of nitrocefin, absorbance 480 nm, 0.01% Triton; series mostly up to 114 µM.
UniProt P00811, sequence (P00811 whole entry, looked up): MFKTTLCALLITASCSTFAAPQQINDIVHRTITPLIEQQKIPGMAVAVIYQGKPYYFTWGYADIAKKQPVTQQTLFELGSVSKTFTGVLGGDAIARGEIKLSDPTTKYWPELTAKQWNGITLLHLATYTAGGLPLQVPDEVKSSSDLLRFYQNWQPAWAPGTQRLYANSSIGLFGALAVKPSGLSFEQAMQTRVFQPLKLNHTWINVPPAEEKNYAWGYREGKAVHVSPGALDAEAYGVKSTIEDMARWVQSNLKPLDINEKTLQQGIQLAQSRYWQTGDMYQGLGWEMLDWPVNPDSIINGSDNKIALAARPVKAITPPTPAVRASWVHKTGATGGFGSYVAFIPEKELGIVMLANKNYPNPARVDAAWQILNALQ
How it was run: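 20 mM phosphate pH 7.0 + 0.01% (detergent screen) or 0.0001% Triton X-100; 5.3 nM AmpC reagent; cpd preinc 15 min RT; nitrocefin (800 uM stock) to start; A480 q20 s × 4 min; Activity was normalised to no-enzyme and no-compound control wells.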
Further: nearly all actives have a fitted effect of over 25% in size.
Potency means the concentration at half of the fitted maximal effect; tags describe the fitted curve by direction and shape.

SMILES | Potency
Cc1ccc(Nc2ccc([N+](=O)[O-])nc2[N+](=O)[O-])cc1 | inactive
Cc1ccccc1Nc1c(-c2cccc(N(C)C)c2)nc2ccc(Br)cn12 | inactive
Cc1nn(CC2CC2)c(=O)n1-c1cccc(Cl)c1 | inconclusive [inhibitor, full curve]
Cc1ccc(CCNC(=O)c2cc(Nc3ccc(C)c(C)c3)nc3ccccc23)cc1 | inactive
COc1ccc(/C=N/NC(=O)c2sccc2OCc2ccc(F)cc2)cc1OC | inconclusive [inhibitor, full curve]
Cc1ccc(C(=O)c2ccc(CC(=O)O)n2C)cc1 | inconclusive [inhibitor, full curve]
Clc1ccc(OCc2nc3ccccc3[nH]2)cc1 | inactive
COc1ccc(OC)c(S(=O)(=O)N2Cc3ccccc3CC2C(=O)Nc2nccs2)c1 (centres undefined) | inconclusive [inhibitor, full curve]
Cc1ccc(CN/C=C/C(=O)c2ccc(Br)cc2)cc1 | inconclusive [inhibitor, single point]
O=C(CCN1C(=O)/C(=C/c2ccccc2Cl)SC1=S)N1CCOCC1 | inactive
COc1ccc(NC(=S)NC(NC(C)=O)C(Cl)(Cl)Cl)c([N+](=O)[O-])c1 (centres undefined) | inactive
Cn1nnnc1SCCNCc1ccc(OCc2ccccc2Cl)cc1 | inactive
O=C(Nc1ccccc1)N(Cc1ccc2c(c1)OCO2)Cc1nc2ccccc2c(=O)[nH]1 | inconclusive [inhibitor, full curve, poor fit]
CCOc1ccccc1N1CCN(C(=O)c2cc(S(=O)(=O)N(C)C)ccc2N2CCCC2)CC1 | inactive
Nc1ccccc1C(=O)OCC(=O)c1ccc2c(c1)OCCO2 | inactive
Cc1c(OC(C)C(=O)N[C@H](C(=O)O)c2ccccc2)ccc2c3c(c(=O)oc12)CCCC3 (some centres undefined) | inconclusive [inhibitor, full curve, poor fit]
COC(=O)c1cc(NC(=O)c2cc(-c3ccccc3Cl)oc2C(F)(F)F)ccc1N1CCOCC1 | inactive
CCN(CC)S(=O)(=O)c1cc(NC(=O)COc2ccc(C#N)cc2OC)ccc1C | inconclusive [inhibitor, full curve]
Cc1ccc(-n2nnnc2-c2cnc3cc4c(cc3c2C)OCO4)cc1 | inconclusive [inhibitor, full curve]
CCOC(=O)N1CCC(NC(=O)CS(=O)(=O)Cc2nc(-c3ccccc3C)oc2C)CC1 | inconclusive [inhibitor, partial curve, poor fit]
CCC(CC)C(=O)c1c[nH]c(C(=O)NN)c1 | inconclusive [inhibitor, full curve, poor fit]
O=C(O)C1C2C=CC(C2)C1C(=O)OCc1ccccc1 (centres undefined) | inactive
O=C(Nc1cccc(Cl)c1)c1ccccc1NC(=O)C1CCCCC1C(=O)O (centres undefined) | inconclusive [inhibitor, partial curve, poor fit]

SMILES | Potency
CCNc1nc(NCC)nc(SCCOc2ccc(C)cc2)n1 | inconclusive [inhibitor, partial curve, poor fit]
O=C(N/N=C/C1CC2CCC1C2)c1c[nH]c2ccccc12 (centres undefined) | inactive
CS(=O)(=O)NN1C(=O)c2ccccc2NC12CCCC2 | inactive
c1ccc(C2=NCCCN2)cc1 | inconclusive [inhibitor, full curve]
CCCN(CC(=O)Nc1ccc(F)c(F)c1F)C(=O)CCc1nc2ccccc2c(=O)[nH]1 | inconclusive [inhibitor, single point]
COc1ccc(OC)c(C(C[N+](=O)[O-])c2c(C)cc3ccccn23)c1 (centres undefined) | inactive
CCOC(=O)c1ccc(NC(=O)N2C[C@@H]3C[C@@H](C2)c2cccc(=O)n2C3)cc1 | inconclusive [inhibitor, full curve]
CN1N=C(c2ccc(F)c(F)c2)CSC1=NCc1ccccc1 | inconclusive [inhibitor, full curve, poor fit]
COc1ccc2[nH]c(C)c(CCNC(=S)Nc3cccc(C)c3)c2c1 | inconclusive [inhibitor, partial curve, poor fit]
Brc1ccc(OCc2ccccc2)c(CNCc2ccncc2)c1 | inconclusive [inhibitor, full curve, poor fit]
CC(=O)Oc1cc(OC(C)=O)c2c(C)cc(=O)oc2c1 | inconclusive [inhibitor, partial curve]
Cc1onc(-c2ccccc2)c1C(=O)OCC(=O)N1CCC(C)CC1 | inconclusive [inhibitor, full curve, poor fit]
Cc1nn(Cc2c(F)cccc2Cl)c(C)c1[N+](=O)[O-] | inconclusive [inhibitor, full curve, poor fit]
CCN1C(=O)C(Cc2nc3ccccc3c(=O)n2-c2ccc(OC)cc2)c2cc(C)ccc21 (centres undefined) | inactive
CCN1C(=O)/C(=C2\SC(N3CCOCC3)=NC2=O)c2ccccc21 | inactive
COc1ccc(/C=N/NC(=O)c2ccncc2)cc1CN1CCOCC1 | inconclusive [inhibitor, partial curve]
O=C(CNC(=O)c1ccccc1)NCCO | inconclusive [inhibitor, full curve, poor fit]
CCN(CCNC(=O)c1ccc2nc(-c3ccccc3NC(C)=O)c(=O)[nH]c2c1)c1ccccc1 | inconclusive [inhibitor, full curve, poor fit]
COc1ccccc1-c1nc(C#N)c(N2CCC(Cc3ccccc3)CC2)o1 | inconclusive [inhibitor, full curve, poor fit]
CCOc1nc(SCCOc2ccc(Cl)cc2Cl)nc(N(C)C)n1 | inconclusive [inhibitor, full curve]
Cc1ccc(C)c2[nH]c(=O)c(CCNC(=O)CC(C)(C)C)cc12 | inconclusive [inhibitor, full curve]
CC(=O)Nc1ccc(NC(=O)C(C)OC(=O)CCCN2C(=O)c3cccc4cccc(c34)C2=O)cc1 (centres undefined) | inconclusive [inhibitor, full curve]
CCOC(=O)c1c(C)[nH]c(C)c1C(=O)COc1ncnc2cc([N+](=O)[O-])ccc12 | inactive

SMILES | Potency
CN(C)C=Nc1ccc2nn(-c3ccccc3)nc2c1 | inconclusive [inhibitor, single point]
CC1C(OC(=O)CCC(=O)NC(C)(C)CO)O[C@H]2OC3(C)CC[C@H]4[C@H](C)CCC1C24OO3 (some centres undefined) | inconclusive [inhibitor, full curve, poor fit]
CN(C)S(=O)(=O)c1cc(NC(=O)COC(=O)Cc2ccc(Br)cc2)ccc1Cl | inactive
CCCc1c(C)c2ccccc2[nH]c1=O | inconclusive [inhibitor, full curve, poor fit]
Cc1ccc(C(=O)Nc2ccc3c(c2)nc(CCNC(=O)c2ccco2)n3C)cc1 | inactive
Cc1cccc(Sc2ccc([N+](=O)[O-])cn2)c1 | inconclusive [inhibitor, partial curve]
COc1ccc(S(=O)(=O)NCC2CCCO2)cc1Cl (centres undefined) | inconclusive [inhibitor, full curve, poor fit]
O=C(NCC(=O)N(c1ccc2c(c1)OCCO2)C(C(=O)NC1CCCC1)c1ccco1)c1ccco1 (centres undefined) | inconclusive [inhibitor, single point]
O=C(CSc1nc(=O)n2cc(Cl)ccc2n1)NCCc1ccccc1 | inconclusive [inhibitor, full curve, poor fit]
FC(F)(F)c1cccc(NC(=S)NCC(c2cccnc2)N2CCOCC2)c1 (centres undefined) | inconclusive [inhibitor, full curve, poor fit]
CCn1c(C)cc(=S)c2ccccc21 | inactive
COc1ccc(C2(c3ccc(OC)cc3)NC(=O)N(CC(=O)N(C)c3ccccc3)C2=O)cc1 | inactive
COc1ccc(S(=O)(=O)N(Cc2ccccc2)Cc2nc(-c3ccccc3)no2)cc1 | inactive
C=CCOc1c2ccc(C(=O)NCc3ccccc3OC)cc2nn1C | inconclusive [inhibitor, partial curve]
Cc1ccc(NC(=S)N2CCN(c3nccc(C(F)(F)F)n3)CC2)c(C)c1 | inactive
CCOC(=O)C1=C(CS(=O)(=O)c2ccc(C(C)(C)C)cc2)NC(=O)NC1c1cccc(OC)c1 (centres undefined) | inactive
COc1ccc(OC)c(S(=O)(=O)N2CCC(C(=O)NCC3CCCO3)CC2)c1 (centres undefined) | inconclusive [inhibitor, full curve]
O=C(Nc1ccc2c(c1)OCO2)C1CC(c2ccccc2O)=NO1 (centres undefined) | inconclusive [inhibitor, full curve, poor fit]
COc1ccc(-c2nnc(SCC(=O)N3CCc4ccccc4C3)o2)cc1 | inconclusive [inhibitor, single point]
COc1cccc(-c2nnn(CC(=O)NC3CCCC3)n2)c1OC | inactive
COc1ccccc1/C=C\C=N\NC(=O)c1ccco1 | inconclusive [inhibitor, full curve, poor fit]
O=C(COC(=O)COc1cccc(C(F)(F)F)c1)NC1CCS(=O)(=O)C1 (centres undefined) | inconclusive [inhibitor, full curve, poor fit]
CCCCSc1nc(C)cc(C)c1S(=O)(=O)c1ccccc1C | inconclusive [inhibitor, full curve, poor fit]
